Among all 48,000 compounds or so, about 550 (1.1%) were called active. About 4% were inconclusive and are not listed. No stated cut-off is given here; in the data, active means potency below about 15 µM; inconclusive means mostly about 16 µM to 33 µM; inactive means weaker than that. Some of the results follow.
target: Lysosomal acid glucosylceramidase (Homo sapiens) (UniProt P04062); assay: Glucocerebrosidase; details: purified enzyme, resorufin glucoside fluorescence (screen aimed at inhibitors), 20 min; series mostly up to 77 µM;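 further: the screen sought inhibitors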
Chain of UniProt P04062 (P04062 whole entry, looked up): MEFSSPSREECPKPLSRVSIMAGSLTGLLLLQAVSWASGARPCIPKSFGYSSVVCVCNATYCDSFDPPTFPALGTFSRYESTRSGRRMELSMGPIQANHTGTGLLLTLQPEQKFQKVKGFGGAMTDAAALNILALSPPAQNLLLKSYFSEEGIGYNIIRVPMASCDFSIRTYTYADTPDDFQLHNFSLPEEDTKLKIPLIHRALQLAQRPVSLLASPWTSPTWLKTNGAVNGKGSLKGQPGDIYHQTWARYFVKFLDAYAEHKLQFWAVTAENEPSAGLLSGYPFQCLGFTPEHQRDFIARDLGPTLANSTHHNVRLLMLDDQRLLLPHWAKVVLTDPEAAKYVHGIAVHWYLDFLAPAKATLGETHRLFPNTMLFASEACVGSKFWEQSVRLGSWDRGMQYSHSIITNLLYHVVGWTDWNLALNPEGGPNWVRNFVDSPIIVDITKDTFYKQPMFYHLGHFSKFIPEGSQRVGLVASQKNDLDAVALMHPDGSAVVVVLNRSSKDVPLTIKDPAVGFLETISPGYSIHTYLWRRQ
Method in brief: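 Wild-type enzyme at 0.2 nM final in 50mM citric acid/KH2PO4, 10mM sodium taurocholate, 0.01% tween-20, pH 5.9, with resorufin beta-D-glucopyranoside at 30 uM final. Compounds titrated, 20 min at RT, red fluorescence read; AC50 from titration.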
Potency means the concentration at half of the fitted maximal effect.

Potency, inactive:
O=C1c2ccccc2C(=O)N1CC1=CCS(=O)(=O)C1 > 76.9 µM, CCN(Cc1ccccc1)C(c1cc2cc(C)cc(C)c2[nH]c1=O)c1nnnn1CCOC (stereo not drawn) > 76.9 µM, CCOC(=O)CNC(=O)CSc1nc2ncc(Br)cc2[nH]1 > 76.9 µM, COc1cccc(CN2C(=O)C3(C(C#N)=C(N)OC4=C3C(=O)CCC4)c3ccccc32)c1 (stereo not drawn) > 76.9 µM, CCC(C(=O)OCC(=O)Nc1c(C)n(C)n(-c2ccccc2)c1=O)c1ccccc1 (stereo not drawn) > 76.9 µM, Cn1c(SCc2nc3ccccc3s2)nnc1-c1ccc2c(c1)OCO2 > 76.9 µM, CC(=O)N1CCc2cc(S(=O)(=O)NC(CC(C)C)C(=O)N3CCn4c3nc3ccccc34)ccc21 (stereo not drawn) > 76.9 µM, CCOc1ccccc1NC(=O)CC1NCCNC1=O (stereo not drawn) > 76.9 µM, OCCSc1c(F)c(SCCO)c(SCCO)c(F)c1SCCO > 76.9 µM, Cn1c(O)c(C=NC(CC(N)=O)C(=O)O)c(=O)n(C)c1=O (stereo not drawn) > 76.9 µM, Cc1cc(NC(=O)CSc2ccc3nnc(-c4ccc(Cl)cc4)n3n2)no1 > 76.9 µM, Cc1ccc2c(c1)CCCN2C(=O)C1CCCO1 (stereo not drawn) > 76.9 µM, COc1ccc(CCn2nnnc2C(C(C)C)N2CCC(C(N)=O)CC2)cc1OC (stereo not drawn) > 76.9 µM, COC(=O)CCN(C(=O)c1ccc2c(c1)OCO2)c1ccccn1 > 76.9 µM, CCC(=O)Nc1nn(C)c2nc3c(C)cccc3cc12 > 76.9 µM, Cc1cccc(OCCn2c(NC(=O)c3ccco3)nc3ccccc32)c1 > 76.9 µM, O=C(CSc1ncn(-c2ccccc2)n1)Nc1nc2ccccc2s1 > 76.9 µM, CCOC(=O)c1cnc(SCC(=O)N2CCN(c3ccccc3)CC2)nc1N > 76.9 µM, S=c1[nH]nc(-c2ccco2)n1-c1cccc2ccccc12 > 76.9 µM, CSc1[nH]c(=O)c(C(=O)O)cc1C#N > 76.9 µM, O=C(Nc1ccc(Cl)cn1)c1cc2ccccc2o1, COc1ccccc1-n1c(SCC(=O)N(C)C2CCS(=O)(=O)C2)nc2ccccc2c1=O (stereo not drawn) > 76.9 µM, Cc1cc(C)c2cc(CN(CC3CCCO3)S(=O)(=O)c3ccc4c(c3)OCCO4)c(=O)[nH]c2c1 (stereo not drawn) > 76.9 µM, COc1ccc(-c2nnc(SCC(=O)NCc3ccco3)o2)cc1 > 76.9 µM, CCOC(=O)CNc1ccc2c(c1)OCO2 > 76.9 µM, CCN1C(=O)C(CC(=O)NC2CCCCC2)N(CC)C1=O (stereo not drawn) > 76.9 µM, Cn1nnnc1SCC(=O)c1ccco1 > 76.9 µM, CCn1c(=O)cc(SCC(=O)NCCCN2CCN(c3ccc(F)cc3)CC2)c2ccccc21 > 76.9 µM, CC(=O)OC(C(=O)Nc1ccccc1)C(C)S(=O)(=O)c1ccccc1 (stereo not drawn) > 76.9 µM, COC(=O)c1cc(=O)n2c(-c3ccccc3)csc2n1 > 76.9 µM, O=C(Cc1ccc2cccnc2c1)c1ccc(O)cc1O > 76.9 µM, O=c1/c(=C/c2ccc(CNS(=O)(=O)c3ccccc3)o2)sc2n1CCN=2 > 76.9 µM, Cc1ccc(-n2c(C)cc(C)c(C#N)c2=O)cc1Cl > 76.9 µM, O=C(NCC1CCCO1)C1CCC(=O)N1CCc1ccccc1 (stereo not drawn) > 76.9 µM, Cc1cc(C)cc(N(CC(=O)N2CCC(C)CC2)S(C)(=O)=O)c1 > 76.9 µM, CC(C)(C)c1cc(CN(CCO)CCO)cc(C(C)(C)C)c1O > 76.9 µM, CCOC(=O)c1c(C)n(C)c2ccc(OC(=O)c3ccoc3)cc12 > 76.9 µM, Cc1ccc(C(C)C)c(OCc2nnc(SCC(=O)Nc3nccs3)n2C)c1 > 76.9 µM, CC1(C)CC(=O)C=C(NC2CCS(=O)(=O)C2)C1 (stereo not drawn) > 76.9 µM, O=C(OCn1nnc2ccccc2c1=O)C1CCN(S(=O)(=O)c2cccs2)CC1 > 76.9 µM, Cc1ccc(C(=O)Nc2ccccc2C(=O)NCc2ccco2)cc1S(=O)(=O)N1CCCCC1 > 76.9 µM, COCCn1c(SCC(=O)Nc2sc(C)c(C)c2C#N)nnc1-c1ccc(OC)cc1 > 76.9 µM, COc1ccc(OC)c(NC(=O)CCN2CCCCC2)c1 > 76.9 µM, CCCCCOC(=O)Cc1c(O)c2ccccc2[nH]c1=O > 76.9 µM, COc1ccccc1CNC(=O)CNCC1CCCO1 (stereo not drawn) > 76.9 µM, CCOC(=O)c1ccc(NC(=O)CSc2nnc(C)n2-c2ccccc2)cc1 > 76.9 µM, Cc1nc2c3cnn(-c4ccccc4)c3ncn2n1 > 76.9 µM, CCN(C(=O)CSc1nc2nc(C)cc(C)n2n1)c1cccc(C)c1 > 76.9 µM, Cn1c(=O)oc2cc(S(=O)(=O)N3CCN(c4cccc(Cl)c4)CC3)ccc21 > 76.9 µM, CCCCn1c(SCC(=O)NCc2cccs2)nc2c1c(=O)n(C)c(=O)n2C > 76.9 µM, CCC(Oc1ccccc1)C(=O)N1CCC(C(N)=O)CC1 (stereo not drawn) > 76.9 µM, COCCN(C(=O)c1csnn1)C(C(=O)NC1CCCCC1)c1sccc1C (stereo not drawn) > 76.9 µM, O=C(Cc1ccc(Cl)c(Cl)c1)OCC(=O)c1ccc[nH]1 > 76.9 µM, CCOc1ccc(N=C(NC#N)SC)cc1, CC(CCc1ccccc1)NC(=O)C1CCN(S(=O)(=O)N2CCCCC2)CC1 (stereo not drawn) > 76.9 µM, NC(=O)c1ccsc1NC(=O)c1nc(-c2ccccc2)n(-c2ccccc2)n1 > 76.9 µM, COC(=O)c1ccc(CS(=O)(=O)c2ccccc2C)o1 > 76.9 µM, CCOC(=O)C1CCN(C(=O)CNS(=O)(=O)c2cccs2)CC1 > 76.9 µM, O=C(CSc1nc(N2CCCCC2)nc(N2CCCCC2)n1)c1ccccc1 > 76.9 µM, CCS(=O)(=O)NCc1csc(C)n1 > 76.9 µM, c1ccc(-c2nc(CSc3nnc(-c4cccs4)o3)cs2)cc1 > 76.9 µM, COc1cccc(C(=O)N(CN2CCCC2=O)c2cccc(Cl)c2)c1OC > 76.9 µM, Cc1cc(N2C(=O)CCC2=O)n(-c2ccccc2)n1 > 76.9 µM, Cc1ccc(-n2cc(C(C)(C)C)[nH]c2=S)cc1 > 76.9 µM, O=C1CCC(=O)N1CCC(c1ccc(F)cc1)c1ccco1 (stereo not drawn) > 76.9 µM, COc1ccc(C(=O)NC2CC3CCCC(C2)N3CC(C)C)cc1OC (stereo not drawn) > 76.9 µM, CC1Cc2ccccc2N1S(=O)(=O)c1cccs1 (stereo not drawn) > 76.9 µM, CC(C)C1=C2CCCCC2NC(=O)N1 (stereo not drawn) > 76.9 µM, O=C(CSc1nc2ccccc2c(=O)n1-c1ccccc1)NCc1ccco1 > 76.9 µM, CCOc1cc(C)c(Cl)cc1S(=O)(=O)N1CCCC1 > 76.9 µM, O=C(O)c1cc(-c2cccnc2)nn1-c1ccccn1 > 76.9 µM, O=C(CSCc1ccc(Cl)cc1)c1ccco1 > 76.9 µM, C=CCOc1ccc(/C(O)=C2\C(=O)C(=O)N(CCCOC)C2c2ccc(O)c(OC)c2)cc1 (stereo not drawn) > 76.9 µM, CN(CCC#N)CC(=O)Nc1ccc(NC(=O)CN(C)CCC#N)cc1 > 76.9 µM, CCCCC(=O)Nc1ccc2c(c1)OCCO2 > 76.9 µM, Cc1ccc(C(=O)CSc2nc3cccnc3n2C)cc1 > 76.9 µM, CCC(C)(NC(=O)CNC(C)=O)C(=O)NC1CCCCC1 (stereo not drawn) > 76.9 µM, CCn1c(SCC(N)=O)nnc1-c1ccco1 > 76.9 µM, CCOc1ccc(-c2nnc(-c3snc(-c4ccc(F)cc4)c3N=CN(C)C)o2)cc1 > 76.9 µM, CCOC(=O)c1cc2sccc2n1CC(=O)N1c2ccccc2CC1C (stereo not drawn) > 76.9 µM, Cc1cc(N2C(=O)C(O)=C(C(=O)c3ccco3)C2c2cccnc2)no1 (stereo not drawn) > 76.9 µM, COC(=O)c1sc(=S)sc1C(=O)OC > 76.9 µM, CCOc1ccc(CN(CCO)CCO)cc1C(=O)OC > 76.9 µM, COc1ccc(CCNS(=O)(=O)c2ccc(S(=O)(=O)N3CCCC3)cc2)cc1OC > 76.9 µM, Cc1noc(C)c1CSc1nc2ccccc2n1C > 76.9 µM, CCc1cccc(NC(=O)Nc2cccs2)c1 > 76.9 µM, O=C1CC2CS(=O)(=O)CC2N1c1ccc(Oc2ccccc2)cc1 (stereo not drawn) > 76.9 µM, CC1(C)CC(=O)C2=C(C1)OC(N)=C(C#N)C21CCN(Cc2ccccc2)CC1 > 76.9 µM, Cc1cc(-n2c(C)cc(C(=O)CN3C(=O)NC4(CCCCCC4)C3=O)c2C)no1 > 76.9 µM, O=C1c2cccnc2C(O)N1Cc1cccs1 (stereo not drawn) > 76.9 µM, Cc1nnc(SCCn2c(N3CCCCC3)nc3c2c(=O)[nH]c(=O)n3C)s1 > 76.9 µM, CC(=O)Nc1cccc(NC(=O)c2cc(C)on2)c1 > 76.9 µM, Cc1ccc(S(=O)(=O)NC(=O)N2CCCC(C)(C)C2)cc1 > 76.9 µM
